Assay results published in patent publication US11919965B2, “Methods of treating multiple myeloma with bispecific anti-BCMA x anti-CD3 antibodies” (Regeneron Pharmaceuticals, Inc., priority 2019, dated 2024).

What was measured:
Assay in all cases: SPR (Biacore 4000) binding kinetics at 25° C.
[1] = target: T1, human BCMA-MFC (Homo sapiens, UniProt Q02223)
T1 construct: extracellular domain of human BCMA expressed with C-terminal mFc tag (human BCMA-MFC)
Experimental: (§1) The CM5 Biacore sensor surface was derivatized by amine coupling with a monoclonal mouse anti-human Fc antibody (GE, #BR-1008-39) to capture purified anti-BCMA mAbs and anti-BCMA×anti-CD3 bispecific mAbs. All Biacore binding studies were performed in a buffer composed of 0.01M HEPES pH 7.4, 0.15M NaCl, 3 mM EDTA, 0.05% v/v Surfactant P20 (HBS-ET running buffer). […] Antigen samples were then injected over the anti-BCMA and anti-BCMA×anti-CD3 bispecific mAbs captured surfaces at a flow rate of 30 μL/minute. Antibody-reagent association was monitored for 5 minutes while dissociation in HBS-ET running buffer was monitored for 10 minutes. All of the binding kinetics experiments were performed at 25° C. Kinetic association (ka) and dissociation (kd) rate constants were determined by fitting the real-time sensorgrams to a 1:1 binding model using Scrubber 2.0c curve fitting software. Binding dissociation equilibrium constants (KD) and dissociative half-lives (t1/2) were calculated from the kinetic rate constants as: […]

[2] = target: T2, human BCMA-MMH (Homo sapiens, UniProt Q02223)
T2 construct: extracellular domain of human BCMA expressed with C-terminal myc-myc-hexahistidine tag (human BCMA-MMH)
Experimental: as §1

[3] = system: monkey BCMA-MFC; conditions: antibody captured on anti-human Fc
Experimental: as §1

[4] = target: monkey BCMA-MMH
Experimental: as §1

[5] = target: T3, mouse BCMA-MFC (Mus musculus, UniProt O88472)
T3 construct: 30 nM BCMA expressed with C-terminal mFc tag (mouse BCMA-MFC)
Experimental: as §1

T1 sequence (Q02223 with tags, fused parts or gaps): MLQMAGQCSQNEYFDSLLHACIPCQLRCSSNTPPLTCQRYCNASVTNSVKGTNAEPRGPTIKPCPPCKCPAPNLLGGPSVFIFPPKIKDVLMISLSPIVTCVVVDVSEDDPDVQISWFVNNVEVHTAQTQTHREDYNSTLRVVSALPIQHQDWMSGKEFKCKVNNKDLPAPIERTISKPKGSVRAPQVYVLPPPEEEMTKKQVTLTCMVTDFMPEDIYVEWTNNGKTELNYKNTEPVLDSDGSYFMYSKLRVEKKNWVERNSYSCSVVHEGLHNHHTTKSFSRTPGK
T2 sequence (Q02223 with tags, fused parts or gaps): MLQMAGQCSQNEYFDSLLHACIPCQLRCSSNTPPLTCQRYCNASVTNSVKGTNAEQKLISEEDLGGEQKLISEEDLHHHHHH
T3 sequence (O88472 with tags, fused parts or gaps): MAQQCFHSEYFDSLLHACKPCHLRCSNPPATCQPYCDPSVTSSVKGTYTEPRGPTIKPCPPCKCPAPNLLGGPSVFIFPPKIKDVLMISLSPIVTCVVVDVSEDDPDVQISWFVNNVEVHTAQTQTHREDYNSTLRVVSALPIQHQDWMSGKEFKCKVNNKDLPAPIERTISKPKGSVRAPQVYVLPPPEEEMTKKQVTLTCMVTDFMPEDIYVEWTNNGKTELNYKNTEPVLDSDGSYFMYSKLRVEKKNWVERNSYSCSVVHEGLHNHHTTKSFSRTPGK

B1: mAb16716: anti-BCMA antibody, HCVR/LCVR SEQ ID NOs 18/26 (antibody, V domains shown)
VH: [letters of about 100 residues not shown]RAGDNWNWFDPWGQGTLVTVSS
VL: DIQMTQSPSSVSASLGDRVTITCRASQGISSWLAWYQRKPGKAPKLLIYAASSLQSGVPSRFSGSGSGADFTLTISSLQPEDFATYYCQQAKSVPFTFGPGTKVDIK
In the case of B1, the “ka” value [1] is reported as 862000 M⁻¹ s⁻¹, the “kd” value [1] is reported as 8.35e-05 s⁻¹ and the “ka” value [2] is reported as 841000 M⁻¹ s⁻¹. The “kd” value [2] was 0.00299 s⁻¹, the “30 nM mfBCMA.mFc Bind (RU)” value [3] was 3.2 RU and the Kd [4] was greater than 90 nM. The “ka” value [5] was 205000 M⁻¹ s⁻¹ and the “kd” value [5] was 0.00385 s⁻¹.
